Experimental data taken from PubChem BioAssay AID1963576 (National Center for Advancing Translational Sciences (NCATS), 2024).
Hit rate of the full screen: of about 46,000 compounds, about 60 (0.1%) were called active. About 3% were inconclusive and are not listed. The call rests on the fitted dose curve; in most records, active means well fitted inhibition curve with a large enough effect; inconclusive means small, poorly fitted or top-dose-only effect; inactive means no such curve, though single readings can be large or run the other way. This is one part of the list.

Test: Primary qHTS assay for Inhibitors of ovarian cancer metastasis using an organotypic tumor microenvironment (TME) model. Further: nearly all actives have a fitted effect of over 65% in size.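 On activity change, negative = inhibition: plate controls were DMSO wells for no effect and tomatine positive control wells for full effect.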
Settings: SKOV3ip1-GFP adhesion/invasion on 3D omental model, fluorescence; series mostly up to 45.8 µM; activity change, negative = inhibition: at the top concentration
In short: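 Adhesion/invasion was scored as fixed GFP-labeled SKOV3ip1 cell counts (488/509 nm), normalized to DMSO and tomatine controls. Cancer cells in serum-free medium, with four compound doses (0.36-46 umol/L), sat 2 hr at RT then 16 hr at 37 C on a 48 hr fibroblast/mesothelial/ECM culture.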

outcome, inactive:
COC(=O)c1cnc(NCc2ccc(F)cc2)c2ccccc12, CCN(CC)C(=O)Cn1c(=O)nc(-c2ccccc2F)c2cc(Cl)ccc21, COc1ccc(CC(=O)NCC(c2ccc(N(C)C)cc2)N2CCOCC2)cc1 (centres undefined), CC(C)c1ccc(OC(=O)c2cc(-c3ccc(Cl)cc3)on2)cc1, Cc1ccc(NC(=O)CSc2nc(-c3cccs3)nc3cc(=O)[nH]n23)cc1, Cc1ccc(Nc2nnc(-c3ccc(C)c(S(=O)(=O)N4CCOCC4)c3)c3ccccc23)c(C)c1, CCc1cccc(N2C(=O)N(CC(=O)NCc3cccc(OC)c3OC)c3ccccc3S2(=O)=O)c1, COc1ccc(C(=O)NCCc2sc(-c3ccc(Cl)cc3)nc2C)c(OC)c1, COC(=O)c1ccc(OCC2c3cc(OC)c(OC)cc3CCN2C(=O)C(C)C)cc1 (centres undefined), COc1ccc(OC)c(NC(=O)CN(C)S(=O)(=O)c2ccc3[nH]c4c(c3c2)CCCC4)c1, COc1ccc(OC)c(CCNC(=O)c2c(C)nn(-c3ccc(F)cc3)c2-n2cccc2)c1, COc1ccc(Cn2nnc(C(=O)Nc3cc(OC)ccc3OC)c2N)cc1, O=C(CSc1ncc2c(n1)-c1ccc(Cl)cc1N(Cc1ccccc1)S2(=O)=O)Nc1ccc(F)c(F)c1, CCOc1ccc(C2C(C(N)=O)=C(C)Nc3nc(SCc4ccccc4)nn32)cc1 (centres undefined), COc1ccc(CNC(=O)Nc2ccc3c(c2)N(C)C(=O)c2ccccc2S3)cc1, CCCCNC(=O)CSc1nc2ccccc2nc1Cc1ccc(C)cc1

Activity change, negative = inhibition, inactive:
Cc1ccc(-n2ncc3c(NCCCn4ccnc4)ncnc32)cc1Cl -4.11%, COc1ccc(-n2c(=O)c3sc4ccccc4c3n(CC(=O)Nc3ccccc3F)c2=O)cc1 -20%, CCOC(=O)Cc1ccc(NC(=O)NCc2cccn2Cc2ccccc2)cc1 4.35%, O=C1c2[nH]nc(-c3ccccc3O)c2C(c2ccccc2F)N1Cc1ccncc1 (centres undefined) -0.0792%, Cc1ccc2c(c1)NC(=O)C(CC(=O)Nc1ccccc1Cl)O2 (centres undefined) 5.15%, Cc1oc(-c2ccc(Cl)cc2)nc1CN1CCC(C(=O)NCCCN2CCN(c3cccc(Cl)c3)CC2)CC1 -3.88%, CC(C)C1CCC(C(=O)N[C@H](Cc2ccccc2)C(=O)O)CC1 (some centres undefined) 1.31%, CCc1nc2nc(C)cc(Nc3ccc(OC)cc3OC)n2n1 5.79%, CCC(Cc1ccccc1)NC(=O)Cn1ncc2c3ccccc3n(Cc3ccccc3)c2c1=O (centres undefined) 1.47%, CCOc1ccc(C(=O)c2cn(Cc3ccc(Cl)cc3)c3cc(OC)c(OC)cc3c2=O)cc1 -13%, Cc1ccc(Cl)cc1N1CCN(C(=O)c2cc(S(=O)(=O)N3CCCC3)cn2C)CC1 11.8%, Cc1cc(C)n2nc(SCC(=O)Nc3ccccc3C)nc2n1 2.25%, COc1cc(NC(=O)CN2C(=O)COc3ccc(S(=O)(=O)N4CCCCC4)cc32)cc(OC)c1 5.83%, CCCN1C(=O)C(Cc2nc3ccccc3c(=O)n2-c2ccccc2)c2cc(C)ccc21 (centres undefined) 3.98%, Cc1ccc(C)c(CN2C(=O)c3ccccc3S(=O)(=O)c3ccc(C(=O)N4CCN(c5ccccn5)CC4)cc32)c1 -2.1%, COc1ccc(C)cc1NC(=O)CSc1nc(=O)n(Cc2ccncc2)c2c1CCC2 -0.114%, C=Cc1ccc(CN2C(=O)N(c3ccc(CC)cc3)S(=O)(=O)c3ccccc32)cc1 -6.36%, COc1ccc(C)cc1Nc1nc2cc(Cl)c(Cl)cc2nc1-n1nc(C)cc1C 2.11%, Cc1ccc(NC(=O)Cn2c(=O)n(-c3ccccc3)c(=O)c3c4c(sc32)CCCC4)cc1 14.2%, COc1ccc(C)cc1NC(=O)NCc1ccc2c(c1)CCN2C(=O)c1ccccc1 -7.77%, O=C(CSc1ncc2c(n1)-c1ccccc1N(Cc1ccccc1)S2(=O)=O)Nc1ccccc1 1.64%, COCCNC(=O)c1ccc(CSc2nc3ccncc3n2Cc2ccccc2)cc1 11.2%, CCOC(=O)COc1ccc(C)cc1C(=O)c1ccn2nc(-c3ccc(C)cc3)cc2n1 2.14%, CCOc1ccc(NC(=O)c2c(NC(=O)Cc3ccccc3)sc3c2CCC(C)C3)cc1 (centres undefined) -13.4%, COc1cccc(NC(=O)CSc2nc3ccccc3n2C)c1 11.3%, CCC(=O)N1CCc2cc(S(=O)(=O)CCC(=O)N3CCN(c4cc(C)ccc4C)CC3)ccc21 4.29%, CCOc1ccc(NC(=O)c2c(NCc3ccc(C)o3)sc3c2CCC(C)C3)cc1 (centres undefined) -3.73%, Cc1nnc(N2CCC(C(=O)NC3CCCCC3)CC2)c2nn(-c3ccc(Cl)cc3)c(C)c12 2.84%, CCn1c(=O)cc(SCC(=O)NCCc2cc(OC)ccc2OC)c2ccccc21 1.23%, Cc1ccc(NC(=O)Cn2c(=O)n(Cc3ccco3)c(=O)c3ccc(C(=O)NC4CCCC4)cc32)c(C)c1 -12.1%, COCCCNC(=O)C1CCN(Cc2nc(-c3ccc(OC)c(OC)c3)oc2C)CC1 2.55%, COc1cc(OC)cc(C(=O)Nc2cc(-c3nc4cc(Cl)ccc4o3)ccc2Cl)c1 -17.9%, CCOC(=O)C1CCCN(CC(=O)N2CCCc3c2c(=O)oc2ccc(OCc4ccccc4)cc32)C1 (centres undefined) 2.19%, COc1ccc2c(Sc3ccccc3)c(C(=O)NCCc3ccc(Cl)cc3)[nH]c2c1 -1.86%, O=C(CN1C(=O)COc2ccc(S(=O)(=O)N3CCCC3)cc21)N1CCN(c2ccccc2)CC1 5.75%, CCc1ccc(NC(=O)c2sc3ncnc(N(C)C4CCCCC4)c3c2C)cc1 2.39%, O=C(NCc1ccc2c(c1)CCN2C(=O)c1ccccc1)c1cc2ccccc2[nH]1 -1.28%, O=C(c1cccs1)c1cn(CCOc2ccccc2F)c2ccccc12 -4.54%, COc1cccc(CN2C(=O)c3ccccc3Sc3ccc(C(=O)N(C)Cc4ccccc4)cc32)c1 0.707%, COc1ccc(-c2nnc(SCc3cc(=O)c4cc(C)cc(C)c4[nH]3)n2C)cc1 -0.519%, COc1ccccc1NC(=O)c1cc2ccc3cccnc3c2[nH]1 0.168%, CCOC(=O)c1ccccc1NC(=O)c1c2c(nc3ccccc13)C(=O)N(C1CCCCC1)C2 2.85%, CC(C)CN(C[C@@H](O)[C@H](Cc1ccccc1)NC(=O)O[C@H]1CO[C@H]2OCC[C@H]21)S(=O)(=O)c1ccc(N)cc1 -8.68%
